# Reference: the supplement of paper PMC10126150
# Sequences with one replicate were seen in a single cluster, so their values are uncertain.
# System: ATP
# Test: switch fluorescence ratio, 500 uM ATP over buffer (Cy3 cluster intensity, sum of 5 cycles each) (fold (ratio)); higher = stronger signal-on switching upon ATP binding; sequences stand for … in TCGTCGGCAGCGTCAGATGTGTATAAGAGACAGTTTTTTTTTTTTTTTTTTTTTTTTT…TC
# Conditions: aptamer strand: ATP DNA aptamer (quencher-CACCTGGGGGAGTATTGCGGAGGAAGG + anchor), 100 nM annealed; ATP concentration: 500 uM; one replicate
# Summary of the method: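 Clusters with intensities outside 100-1000 RFU were excluded. The remaining Cy3-labelled switching-strand clusters on a modified Illumina MiSeq flow-cell had been annealed to 100 nM quencher-labelled ATP aptamer and imaged in selection buffer, then after 15 min with 500 uM ATP at 22 °C, for five cycles separated by NaOH stripping and re-annealing. The fluorescence ratio, averaged per switch-domain sequence, is each cluster's summed target-cycle Cy3 intensity over its summed buffer-cycle Cy3 intensity.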
# 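Also: ATP exposure 15 min at 22 °C before imaging.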
row,Sequence,switch fluorescence ratio
1,CGCCTACGGT,1.04
2,TACGATATGT,1.21
3,ATACATGAG,1.02
4,TCCAGTGGGC,1.02
5,CCTAAGAACC,1.03
6,AACTCACCC,1.2
7,AGCTTCGTAG,1.01
8,TGCGGAATTA,0.969
9,CGTGTTTCAG,1.01
10,TCAGCGCTGG,0.986
11,GGGTTTCATA,0.968
12,TTATTGTAG,1.01
13,GGAGTCGCCC,0.991
14,TAAGGGCTAA,1.04
15,GAACTTGTTC,0.98
16,TGCCTCGCTT,1.01
17,TCTTCTTTCG,1.14
18,ATAAGATCAT,1
19,TATATCTATG,1.05
20,GCGGGACTA,0.999
21,AATCACGGGC,1
22,TGGAATGGTA,0.968
23,CCAGAGTCTT,1.04

row,Sequence,switch fluorescence ratio
1,TAAAGCATGC,1.07
2,CGGGGCTGGT,1.01
3,GAGCTCTGTT,0.99
4,ATCGCCGGGT,0.965
5,GAGCAGCTAC,1.42
6,ACACTAGTCG,1.02
7,ATTCTGCGTT,0.946
8,ACGCGGCGGT,1.02
9,GGAAACCTCG,1.22
10,TGTTCGTTGG,0.977
11,TCTGGCCCAT,1.02
12,GTTCCTAGAG,1.03
13,TACGTGTGTG,0.971
14,TTGTCAGACG,0.926
15,TACAGGTCTT,0.983
16,GCAAGGTAAC,1.1
17,GTGCAGCGTA,1.02
18,TGGCTGAAGT,1.06
19,TGTAAAGAGT,1
20,CGTCGTTGTC,1.01
21,GCCTCACGCT,1.08
22,AAGTAGGGTT,1.12
23,ACAACATGGC,1.21

row,Sequence,switch fluorescence ratio
1,GGGTCGTTAT,0.932
2,GTCTATGGTC,0.973
3,TCCGTCAAGG,1.07
4,GCGTTATGG,1.02
5,AATAGTGCCG,0.925
6,CCCCGTATTT,1.29
7,TTTTTACAGC,0.998
8,GCCTCAGTTC,0.92
9,GGGGAAATCT,1.02
10,CACGCGATCA,1.46
11,CTGCACGTAT,1.07
12,TTGCTTTAAG,0.983
13,GAGAGCTCTT,1.03
14,AATTGTACGT,1.02
15,GCCGAGCGAG,0.982
16,GGCAGGATCG,0.934
17,GGCTGGGCTA,0.998
18,TTACGGTGCT,0.969
19,GCCTTTAGGT,1.04
20,AAAAAGATTA,1.02
21,TTTGAACGAT,0.942
22,CTTGGTTGTA,0.989
23,GGAACGGGTT,1.01

row,Sequence,switch fluorescence ratio
1,AAAAGGAGAT,0.998
2,TAGCAGGGA,1.04
3,ATCGTGTTGG,0.967
4,TACGGGTCAA,1.03
5,CGGGCCCGGG,0.979
6,TTAACTGGAG,0.99
7,AGTAACTGA,1.01
8,CTGTGGCACA,0.999
9,AGACCAGACG,0.984
10,ACAACAACAA,1.01
11,ATCGATGCGC,1.06
12,TAGTTGTAT,0.989
13,GGACCAAGAC,2.32
14,TCGCCATGG,1.05
15,TAGAGCCGA,1.01
16,AGAGCCGTTC,0.965
17,TAGAGAAGCT,1.06
18,GGATAAGTGT,0.97
19,GTCGTCGCAT,1
20,ACGCTATGAC,3.67
21,TCGGGCTGCG,1
22,CAGTAGCCG,0.94
23,AACTCTGCC,1.28

row,Sequence,switch fluorescence ratio
1,ATAAAGTATT,1.01
2,TACCTGATTA,1.04
3,TTGACAAGC,0.982
4,CGCTACTGAA,1.01
5,TGTGGAGAAA,1.05
6,TTCTTCAAGT,1.01
7,ACCCATATG,1.08
8,GATTTGTTAC,0.993
9,TAGAAAACGC,0.989
10,GATGATGAAC,1.03
11,AAAGGGGTCC,1.04
12,TCGGTTAGCG,1.01
13,TGGTCTTTAA,1.05
14,TTTGCCCCGC,1.03
15,TTGCCCCGCC,1.19
16,CATGAGAACG,1.02
17,GTTTCAAGGG,0.938
18,AAAGGGAGCA,0.986
19,GTCCCAGGTT,2.44
20,GACAGGAGCA,1.09
21,TGCATCTACG,1.1
22,GCGTCTACTG,0.989
23,AAGATTGAGG,0.964

row,Sequence,switch fluorescence ratio
1,TAAAGTATCA,1.03
2,CAAAAGGTAC,1.15
3,AGTTTTATAA,1.03
4,ATACCCACCA,1.42
5,TGATCCCAAA,0.986
6,CTAGCGAATT,1
7,AGCTCATCCC,1.13
8,ACAATGTCAG,1.02
9,AGAATTCCTA,0.995
10,TCGGATTAGA,1.01
11,TCTAGTTTTG,0.996
12,GGTGGAGGCC,0.954
13,GCCAGCCGGA,1.01
14,GCGATTATG,1.02
15,GGTCAATGAA,0.97
16,TTAGAATATA,0.996
17,TTTGGAGACC,1.05
18,CTTCCTTTA,1.05
19,GATAAAAAGG,0.976
20,AGGGACGCCC,1.61
21,TCCCGGAAGC,2.43
22,CTGGGTTCTT,1.02
23,AGAGTGTACG,0.978

row,Sequence,switch fluorescence ratio
1,AGAACTATAG,1
2,GACATACTTC,1.4
3,ACAGTTTGCA,1
4,CTCATAGTCT,1.01
5,AGCCGAACGC,1.79
6,ATTCTTGATC,0.966
7,AATGCGGACA,1
8,ACCGATGGTT,0.977
9,CGAGGTGTCT,0.987
10,CGATAGTACG,0.989
11,TAGACAACAG,1.08
12,TGGGCCCATC,1.04
13,GATCTTCCGG,1.09
14,CAGAACTAC,1.11
15,CGCGGGGTTG,1.02
16,TCATTGAGTG,1.05
17,ATCGACACGG,1.05
18,GGTGCAGTCG,1.08
19,TAGCCCTAAT,0.99
